# Test results: PubChem BioAssay AID504332 (National Center for Advancing Translational Sciences (NCATS), 2011)
# About 31,000 (8.9%) of roughly 350,000 compounds were called active. The inconclusive results got no clear call from the source; some entries with a clear call stand among them for comparison. Calls come from the whole dose curve; as a rule, active = well fitted inhibition curve with a large enough effect; inconclusive = small, poorly fitted or top-dose-only effect; inactive = no such curve, though single readings can be large or run the other way. A potency beside an inconclusive call is a rough fit, not a confirmed value.
# Biological target: Histone-lysine N-methyltransferase EHMT2 (Homo sapiens) (UniProt Q96KQ7)
# Sequence of UniProt Q96KQ7 (Q96KQ7 whole entry, looked up): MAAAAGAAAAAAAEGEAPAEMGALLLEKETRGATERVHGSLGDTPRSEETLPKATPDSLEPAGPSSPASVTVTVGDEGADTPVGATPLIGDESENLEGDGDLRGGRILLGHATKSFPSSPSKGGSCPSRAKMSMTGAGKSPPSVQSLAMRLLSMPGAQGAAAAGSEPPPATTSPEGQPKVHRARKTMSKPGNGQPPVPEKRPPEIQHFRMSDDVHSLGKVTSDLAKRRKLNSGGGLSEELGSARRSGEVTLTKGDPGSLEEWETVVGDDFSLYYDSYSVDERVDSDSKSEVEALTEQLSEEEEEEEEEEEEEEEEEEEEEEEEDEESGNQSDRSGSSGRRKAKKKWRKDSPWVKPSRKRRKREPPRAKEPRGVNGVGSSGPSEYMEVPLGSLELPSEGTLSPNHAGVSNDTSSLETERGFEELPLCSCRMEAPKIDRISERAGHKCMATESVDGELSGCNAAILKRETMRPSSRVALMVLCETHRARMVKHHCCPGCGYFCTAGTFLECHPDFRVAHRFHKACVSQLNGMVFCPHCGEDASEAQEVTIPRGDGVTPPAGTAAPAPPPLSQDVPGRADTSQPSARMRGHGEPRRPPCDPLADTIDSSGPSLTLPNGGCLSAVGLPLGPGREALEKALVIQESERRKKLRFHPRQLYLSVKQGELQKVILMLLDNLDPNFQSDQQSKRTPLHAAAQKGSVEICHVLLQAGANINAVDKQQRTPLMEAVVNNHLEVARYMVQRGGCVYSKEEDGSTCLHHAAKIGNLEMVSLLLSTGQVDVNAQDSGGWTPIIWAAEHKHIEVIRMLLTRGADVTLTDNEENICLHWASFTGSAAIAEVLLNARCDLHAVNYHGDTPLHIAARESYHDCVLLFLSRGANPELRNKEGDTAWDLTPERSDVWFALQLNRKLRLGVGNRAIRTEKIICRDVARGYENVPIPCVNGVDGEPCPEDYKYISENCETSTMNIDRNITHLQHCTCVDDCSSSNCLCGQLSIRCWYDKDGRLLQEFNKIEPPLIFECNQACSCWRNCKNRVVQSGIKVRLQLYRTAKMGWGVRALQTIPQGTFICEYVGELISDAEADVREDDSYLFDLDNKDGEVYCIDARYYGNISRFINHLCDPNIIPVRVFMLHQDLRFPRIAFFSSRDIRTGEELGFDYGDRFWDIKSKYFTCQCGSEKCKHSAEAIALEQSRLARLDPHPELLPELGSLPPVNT
# Experiment: qHTS Assay for Inhibitors of Histone Lysine Methyltransferase G9a; note: nearly all actives have a fitted effect of over 75% in size
# Settings: G9a H3K9 monomethylation, AlphaScreen, 2 h; activity, negative = inhibition: at 59 µM (top of the series) unless noted
# In short: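 Quantitative HTS format: methyltransferase activity on a biotin-tagged H3K9 peptide is measured by AlphaScreen, using a rabbit anti-monomethyl-H3K9 antibody with streptavidin donor and anti-IgG acceptor beads. Final levels are 20 nM enzyme, 500 nM peptide, 20 uM SAM; 2 h RT.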
# % is set by controls: 0 for no effect and ±100 for the full control effect; potency is the fitted concentration of half-maximal effect; tags give direction and shape of the fitted curve.
Compound,"activity, negative = inhibition",Potency
COc1ccc(OCCCCN2CCC(C)CC2)cc1,inactive: 5.74% [at 102 µM],–
CC1(O)CC(=O)N(c2ccccc2)O1 (stereo not drawn),–,"inconclusive: 89.1 µM [inhibitor, single point]"
COc1ccc(CNc2ccc(Cl)cc2)cc1Cn1ccnc1,–,active: 35.5 µM
CCCn1c(-c2ccc(OC)cc2)nc2c(=O)n(C)c(=O)[nH]c21,inactive: 2.81%,–
COC(=O)CNC(=O)c1cccc(-c2ccc(OC)cc2)c1,inactive: 5.66% [at 102 µM],–
CC(=O)OC1COC(N2CCc3cc(Br)c([N+](=O)[O-])cc32)C(OC(C)=O)C1OC(C)=O (stereo not drawn),inconclusive: -57.6% [inhibitor],–
Cc1ccc(C)c(NC(=O)Cn2ncc3c([nH]c4ccccc43)c2=O)c1,inactive: 0.167%,–
CCCC1=NN(c2ccc([N+](=O)[O-])cc2)C(=O)/C1=C/N(C)C,inactive: -0.381%,–
CCN(CC(=O)Nc1ccc(NC(C)=O)cc1)CC(=O)Nc1cccc(Cl)c1,inactive: 7.1% [at 102 µM],–
Cc1cc(/C=C2/C(=O)N(C)C(=S)N2C)c(C)n1C1CC1,–,active: 79.4 µM
CCCn1c(N)c(N(CCOC)C(=O)c2ccc(N(C)S(=O)(=O)c3ccc(C)cc3)cc2)c(=O)[nH]c1=O,–,active: 1 µM
O=C(Cc1c(O)c2ccccc2[nH]c1=O)NCc1ccccc1,inactive: 1.62%,–
CC(=O)Nc1ccc(NC(=O)CSCc2cnn(-c3ccccc3)c2-n2cccc2)cc1,–,"inconclusive: 7.94 µM [inhibitor, single point]"
COC(=O)c1cc2oc(C)cc2n1Cc1cc(C)ccc1C,–,"inconclusive: 10 µM [inhibitor, partial curve]"
COc1ccccc1NC1=C(Cl)C(=O)N(c2ccccc2)C1=O,–,active: 44.7 µM
CN(C)S(=O)(=O)c1cccc(NC(=O)COC(=O)COc2ccc(Br)cc2)c1,inactive: 14% [at 12.7 µM],–
O=C(CSc1ccccc1C(=O)NCc1ccccc1)NC12CC3CC(CC(C3)C1)C2,–,active: 10 µM
COc1ccc(N2CCN(C(=O)CSc3nnc(-c4cc5ccccc5cc4O)n3C)CC2)cc1,inactive: 16.8% [at 102 µM],–
O=C(CSc1nccn1-c1ccccc1)Nc1ccc2c(c1)OCO2,inconclusive: -72.6% [inhibitor],–
CNC(=S)NNC(=O)c1cccn(Cc2ccccc2)c1=O,inactive: 9.83% [at 102 µM],–
COc1ccc(/C=C/C(=O)N2CCCc3ccccc32)cc1,–,"inconclusive: 35.5 µM [inhibitor, partial curve, poor fit]"
Cc1nnc2ccc(-c3cccc(NS(=O)(=O)c4ccccc4[N+](=O)[O-])c3)nn12,–,active: 50.1 µM
CC(C)(C)c1cc(C(=O)NCCN2CCCC2)cc(C(C)(C)C)c1,–,"inconclusive: 28.2 µM [inhibitor, partial curve]"
Cc1cccc(N2CCN(c3ccc(N4C(=O)CCCC4=O)cc3[N+](=O)[O-])CC2C)c1 (stereo not drawn),–,"inconclusive: 31.6 µM [inhibitor, full curve]"

Compound,"activity, negative = inhibition",Potency
O=C(/C=C/c1ccco1)N1CCN(c2ccccc2)CC1,–,"inconclusive: 25.1 µM [inhibitor, single point]"
COc1cc2nc(CC(C)C)n(NC(=O)c3ccccc3)c(=O)c2cc1OC,inconclusive: -59.6% [inhibitor],–
Cn1c(N2CCCC2)nc2c1c(=O)n(Cc1cccc(F)c1)c(=O)n2C,inconclusive: -53% [inhibitor],–
Cc1ccccc1NC(=O)Cc1nnc(SCC(=O)NC2CCCCC2)n1C,–,"inconclusive: 89.1 µM [inhibitor, single point]"
CCCn1c(=O)c2ccccc2n2c(SCCOc3ccccc3F)nnc12,–,"inconclusive: 28.2 µM [inhibitor, partial curve, poor fit]"
CCc1cc2c(=O)n3c(nc2s1)-c1[nH]c2ccc(OC)cc2c1CC3,–,"inconclusive: 39.8 µM [inhibitor, single point]"
COc1ccccc1OCCN1C(=O)S/C(=C\c2ccco2)C1=O,inconclusive: -84.4% [inhibitor],–
COCCn1c(-c2ccc(F)cc2)nc2cccnc21,inactive: 11.4% [at 102 µM],–
CCCNC(=O)OC[C@H]1O[C@H](CCO/N=C/C[C@@H]2C=C[C@H](OC(C)=O)[C@@H](COC(C)=O)O2)C=C[C@@H]1Oc1ccc(OC)cc1,–,"inconclusive: 50.1 µM [inhibitor, partial curve]"
Cc1cc(C(=O)Nc2ccc3c(c2)OCCO3)c(C)o1,–,"inconclusive: 63.1 µM [inhibitor, single point]"
Cc1ccc2sc(N(CCCN(C)C)C(=O)c3ccc(S(=O)(=O)N(C)C)cc3)nc2c1C,–,"inconclusive: 2 µM [inhibitor, full curve, poor fit]"
COc1cccc(Nc2nc3ccc(OC)cc3s2)c1,–,"inconclusive: 35.5 µM [inhibitor, partial curve, poor fit]"
Cn1c(NN)nc2c1c(=O)n(Cc1ccccc1)c(=O)n2C,–,active: 28.2 µM
O=C1c2cccc3c([N+](=O)[O-])ccc(c23)C(=O)N1c1ccccn1,–,active: 70.8 µM
Cc1ccc(NC(=O)CSc2nnc(COc3ccc(Cl)cc3)o2)cc1,inactive: 1.79%,–
Cc1cn([C@H]2CC(F)[C@@H](CO)O2)c(=O)[nH]c1=O (stereo partly drawn),inactive: 8.73% [at 12.7 µM],–
O=C(CCn1cccc1)Nc1cccc(F)c1,–,"inconclusive: 79.4 µM [inhibitor, single point]"
COc1cc2ccccc2nn1,inactive: 29.1%,–
COc1ccc(S(=O)(=O)N(CC(=O)N2CCN(c3ccccc3OC)CC2)c2ccccc2)cc1,–,"inconclusive: 39.8 µM [inhibitor, partial curve]"
CCCn1nnnc1NCc1ccc(N2CCCC2)cc1,–,active: 3.55 µM
COc1ccc(NC(=O)Nc2ccc([N+](=O)[O-])cc2)cn1,–,"inconclusive: 89.1 µM [inhibitor, single point]"
O=C(CSCc1cnn(-c2ccccc2)c1-n1cccc1)NCc1ccc2c(c1)OCO2,–,"inconclusive: 39.8 µM [inhibitor, single point]"
Fc1ccc(-n2c(-c3ccco3)nc3nc4ccccc4nc32)cc1,–,"inconclusive: 89.1 µM [inhibitor, single point]"
COc1ccc(CCN2CN(S(=O)(=O)c3ccc(OC)cc3)c3nc4ccccc4nc32)cc1,–,"inconclusive: 39.8 µM [inhibitor, single point]"
